Reference: the supplement of paper PMC3334620
Whole data set: some 33,000 sequences, median “E-score (-0.5 to 0.5)” near -0.04, cut for the highest 2% near 0.36. The list shows a part of the results.

Each sequence was assayed against T1, Hmlalpha2 (UniProt P0CY09) (assay: PBM E-score (8-mer binding enrichment) (E-score (-0.5 to 0.5)); higher = stronger / more preferred TF binding; most listed sequences are background and not binding sites). Settings: protein concentration: 200 nM; construct: GST-full length.
T1 sequence: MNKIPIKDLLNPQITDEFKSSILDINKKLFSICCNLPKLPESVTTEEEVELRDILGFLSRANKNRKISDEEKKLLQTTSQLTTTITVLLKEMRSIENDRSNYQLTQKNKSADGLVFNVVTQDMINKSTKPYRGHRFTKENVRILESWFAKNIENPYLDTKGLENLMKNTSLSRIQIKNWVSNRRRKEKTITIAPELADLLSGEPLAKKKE
Method in brief: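 Yeast transcription factors carrying a GST tag, as full-length proteins or DNA-binding domains, were produced by PURExpress in vitro transcription/translation. About 100-200 nM protein was applied to universal all-10-mer Agilent arrays, double-stranded by primer extension on fresh or once-stripped slides. Bound protein was detected with fluorescent anti-GST, and scans were normalised with masliner. The Universal PBM Analysis Suite gave each ungapped eight-base word, pooled with its reverse complement, an E-score, a modified Wilcoxon-Mann-Whitney statistic.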

Row | Sequence | PBM E-score
1 | GCCAAAAC | -0.0313
2 | CGAATGCG | 0.0199
3 | ACTGTCCC | -0.229
4 | AAGAGGGC | -0.143
5 | TAGTCGCA | -0.085
6 | CAAATTAG | 0.0737
7 | AAATGTTA | 0.33
8 | ATCGACCC | -0.146
9 | GGCTGTAC | -0.108
10 | GGGCTGCA | -0.322
11 | AAGGATGG | -0.0478
12 | GGTAATGA | 0.13
13 | AGGTCAAC | 0.0659
14 | CCTGGCCA | -0.135
15 | GCTAGAAC | -0.158
16 | ATCGTCGA | -0.093
17 | GATGCGGA | -0.064
18 | CGTCCGCC | -0.185
19 | CCAGATCA | 0.236
20 | GGGTGCAC | -0.146
21 | CCTGGAAC | 0.0485
22 | ATAATACC | 0.0152
23 | GTCTCTCA | -0.0199
24 | AAGCTATG | -0.119
25 | GCACAACA | 0.187

Row | Sequence | PBM E-score
26 | TCGCTCCA | -0.0399
27 | ACCACTGC | -0.278
28 | GGTCGCTA | -0.182
29 | CCCCGCGG | -0.175
30 | AGGACGCA | -0.239
31 | GATCGTCA | -0.0403
32 | GGTTTATA | 0.101
33 | AAGAGCAG | -0.12
34 | ACTCGGAT | -0.0542
35 | CGCACGAA | 0.0855
36 | CAAGTCGA | -0.0869
37 | AGCCCGAA | -0.288
38 | GACTTCAA | -0.131
39 | ACAGCGTG | 0.265
40 | ACTTGGTG | -0.198
41 | CCGGTGTC | -0.226
42 | AGAGAACT | -0.0018
43 | CACGTGAC | 0.0799
44 | CAATTAGA | 0.121
45 | AATAATCA | 0.129
46 | CTCTTCAC | -0.0517
47 | CCATCGGC | -0.271
48 | CATCATGG | -0.249
49 | GCTTTTGA | -0.0539
50 | CATTTTAA | 0.189

Row | Sequence | PBM E-score
51 | CCGCGATA | -0.00806
52 | AGCTCCAG | -0.311
53 | GCCGGTTA | -0.00182
54 | GCACGAGA | -0.182
55 | TACGACCA | 0.0532
56 | AGAGCACA | -0.0359
57 | ACCTATAT | 0.132
58 | CCGGTAGA | -0.155
59 | AATCGCTC | -0.278
60 | ACGTGAGT | 0.0314
61 | GAAGTATC | -0.00116
62 | ACTGGGAA | -0.0738
63 | ATCTACGA | 0.014
64 | AAGTTATG | 0.256
65 | CAACCAGG | 0.0197
66 | CTTAAGTA | 0.0845
67 | CCAATTCA | 0.0971
68 | GGTAAATA | 0.167
69 | CCTGTACA | 0.304
70 | ACGGAGGG | -0.228
71 | CATGTGCA | 0.135
72 | AGCATGGC | -0.00608
73 | AGTTACCA | 0.117
74 | CGCAAGAC | -0.132
75 | AGGAGACG | -0.201

Row | Sequence | PBM E-score
76 | GCGGGATA | -0.0516
77 | GCCATATA | 0.0375
78 | ATACATAA | 0.392
79 | CCACACAG | -0.0322
80 | GCTCTGGA | -0.0396
81 | AGCTCCCT | -0.192
82 | AGCGATCC | -0.112
83 | CAGGCATG | 0.189
84 | AACGATGT | 0.316
85 | CAGCGACG | -0.0401
86 | GCTAGACC | -0.362
87 | CATAGAAA | 0.101
88 | GTTACGTA | 0.293
89 | ATGCAGGA | 0.0208
90 | ATCGCCAG | -0.171
91 | ATAACCAG | 0.0636
92 | AAGCGTAG | -0.122
93 | AATGAGAT | 0.207
94 | CCAAAGAC | -0.0218
95 | TAAGTCCA | -0.0524
96 | ACACAAGT | 0.257
97 | CCAGATGC | -0.0584
98 | ATTCTCTA | -0.0415
99 | GACGCCCC | -0.244
100 | GTAGATAA | 0.281

Row | Sequence | PBM E-score
101 | TCCTCCGA | -0.258
102 | ATATCAGA | 0.22
103 | CGTGTTTC | 0.272
104 | TCGCCGAA | -0.222
105 | ACAAATTA | 0.267
106 | ATGGGTCA | -0.103
107 | AGTGCATA | 0.1
108 | ATCTCCCC | -0.304
109 | CAACCATC | -0.146
110 | GGTTCGAC | -0.00323
111 | AACGGGCC | -0.181
112 | CAGAGAGC | -0.362
113 | ACTACGCA | 0.193
114 | CCATCCCA | -0.295
115 | AATGTGTC | 0.0899
116 | TGACACAA | 0.267
117 | CGTTCTCA | 0.0289
118 | CCCTTAGA | -0.353
119 | AGAATTAC | 0.356
120 | GCTAGAAA | 0.0549
121 | CCAGACCA | -0.179
122 | CTCACACA | 0.114
123 | GAATGTCA | 0.0786
124 | ATGGGAGC | -0.138
125 | TAGCCATA | 0.0377

Row | Sequence | PBM E-score
126 | ACGCTAGC | -0.137
127 | GATGCGCC | -0.203
128 | AAGAATTG | 0.0631
129 | CAACTGGA | -0.282
130 | CTATGCAC | -0.0914
131 | TGAGCCAA | -0.0404
132 | GACACACC | 0.0837
133 | ACCCAGTA | -0.0976
134 | AACCGTGG | -0.166
135 | CCGCGCGC | -0.242
136 | CATCCCCA | -0.23
137 | CAAGCGAG | -0.0133
138 | GCATAGAA | -0.0269
139 | AATAGAGA | -0.053
140 | ACGAACGG | 0.0877
141 | ACGTCTCG | 0.064
142 | GTGGAGTA | 0.0189
143 | CATTAATA | 0.199
144 | AGAGTCCC | -0.368
145 | ATGTGCAC | 0.0166
146 | AAGCAGCT | -0.0589
147 | CTGCTGCC | -0.231
148 | ATCTCTTA | 0.0731
149 | GGTAGACA | -0.0874
150 | GTACATAA | 0.377

Row | Sequence | PBM E-score
151 | AGGTGAAG | -0.0123
152 | TGTCGACA | 0.221
153 | GCCGCCCC | -0.213
154 | AAGGAATT | -0.188
155 | ACCGCCAC | -0.0584
156 | ATCGGCAA | -0.25
157 | ACTGCAGC | -0.186
158 | AAAGAGTC | -0.291
159 | ATTTACAG | 0.269
160 | AAGTGTCT | 0.0533
161 | ACAGATTC | 0.157
162 | GCACCGCA | -0.215
163 | TACCTTCA | 0.118
164 | AGACGCCA | -0.197
165 | GCGATCCA | -0.0023
166 | AGATATTA | -0.0188
167 | CCAGCCAG | -0.308
168 | AGGCTATA | -0.0923
169 | GGACTGGA | -0.162
170 | CTGCATTA | 0.0439
171 | CCAGAGGC | -0.299
172 | TAAGAGTA | 0.113
